Source: the supplement of paper PMC3334620
Over roughly 33,000 sequences, “E-score (-0.5 to 0.5)” has its median near -0.017; the highest 2% begin near 0.3. Some of the results follow.

These sequences were tested against T1, Sut1 (UniProt P53032) (assay: PBM E-score (8-mer binding enrichment) (E-score (-0.5 to 0.5)); higher = stronger / more preferred TF binding; most listed sequences are background and not binding sites). Conditions: protein concentration: 200 nM; construct: GST-full length.
T1 sequence: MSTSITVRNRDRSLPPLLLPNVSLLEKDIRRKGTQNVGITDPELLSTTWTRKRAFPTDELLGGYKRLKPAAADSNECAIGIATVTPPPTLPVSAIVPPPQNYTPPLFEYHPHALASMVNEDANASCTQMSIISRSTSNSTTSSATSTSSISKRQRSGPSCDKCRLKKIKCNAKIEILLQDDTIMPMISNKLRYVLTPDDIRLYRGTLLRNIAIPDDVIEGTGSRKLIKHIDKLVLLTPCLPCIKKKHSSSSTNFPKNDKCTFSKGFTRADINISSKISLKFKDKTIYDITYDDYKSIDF
In short: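 Using PURExpress in vitro transcription/translation, GST-tagged yeast transcription factors were made in full-length or DNA-binding-domain form. These were applied at about 100-200 nM to double-stranded universal all-10-mer Agilent arrays, and bound protein was detected with fluorescent anti-GST. Scans were normalised with masliner before the Universal PBM Analysis Suite assigned E-scores to ungapped eight-base words pooled with their reverse complements.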

| Sequence | PBM E-score |
| --- | --- |
| AGGATTGA | 0.226 |
| AGAACCAA | 0.0688 |
| ACCCAATC | 0.0165 |
| GACTGGCA | -0.185 |
| CAATTGGG | -0.152 |
| AGCAATCG | -0.0346 |
| AACGCCAA | 0.00932 |
| GAGTGATA | 0.13 |
| CCCGCTCA | -0.307 |
| ATGGCCGG | -0.0767 |
| AGAAGGAG | -0.24 |
| TGCTCTAA | -0.027 |
| GATATATA | 0.247 |
| CGCTATGC | -0.224 |
| AGGCGCAG | -0.269 |
| AGGGAAAT | -0.0717 |
| CGGCAACC | -0.151 |
| CAGTCTAC | -0.131 |
| ACTACTTC | 0.0508 |
| TAACATAA | 0.234 |
| GACCGCTA | -0.176 |
| GAATGCTA | -0.0777 |
| GGTATAAA | 0.221 |
| CCTTCATC | -0.00832 |
| ACACCACC | -0.215 |

| Sequence | PBM E-score |
| --- | --- |
| GGCTTCTA | -0.021 |
| ATTCTGTG | 0.201 |
| GCCATTCC | -0.0862 |
| GGACTCGA | 0.0681 |
| TACCACGA | -0.0196 |
| CGAAGCTC | -0.037 |
| ATTGGTTC | 0.129 |
| ATTGCGCA | -0.0406 |
| ATACGGTC | -0.162 |
| AAGCGAGG | -0.0277 |
| CGGAATGA | 0.18 |
| AGACAGAG | -0.0452 |
| ATGCAGCC | -0.0379 |
| CGACACAC | -0.0186 |
| GATCGAGA | -0.00475 |
| CAAAACCG | 0.141 |
| ATGTGAAA | 0.103 |
| ACCACCAA | -0.0399 |
| ACAATTCT | 0.101 |
| GCTGTAGA | -0.0872 |
| CTCAGTGA | -0.26 |
| AAGTGCTC | -0.305 |
| ATGATCAG | 0.0134 |
| CAGTAGTA | -0.0903 |
| TCGCATCA | 0.0509 |

| Sequence | PBM E-score |
| --- | --- |
| GAGTATCA | 0.186 |
| CATAGACC | -0.129 |
| ATGCTGTA | -0.0444 |
| GAGTATCC | 0.0482 |
| GGGTTCAC | -0.0207 |
| GGGATCTA | -0.104 |
| AACGCAGT | -0.045 |
| ATAGCCGA | 0.165 |
| TCGTCCCA | -0.269 |
| CTAACAGC | -0.0894 |
| AATATATA | 0.325 |
| CAGCCCTA | -0.141 |
| ATTTGTAA | 0.191 |
| ATTTCGTG | 0.11 |
| AGGACCCG | -0.173 |
| GAACCTTA | 0.219 |
| ATGGTTGG | 0.0746 |
| AGTAATGG | 0.0811 |
| AATCGGAA | 0.38 |
| AGCTTCCT | 0.0814 |
| AAAACCGT | 0.0363 |
| GGGGAGGA | -0.223 |
| CGCCAACA | 0.0475 |
| CTTCTACA | 0.0611 |
| GCAGGGAA | 0.0261 |

| Sequence | PBM E-score |
| --- | --- |
| CTTGTAAA | 0.211 |
| AGTTCGCG | -0.0451 |
| ATAAAGCG | 0.0732 |
| GATGAGAA | -0.0707 |
| CCGTCCGC | -0.0619 |
| CAGGGTGC | -0.248 |
| AAGCAACA | 0.0472 |
| AAATAGAC | 0.122 |
| AGAGGTTG | -0.0996 |
| GTACCATA | -0.106 |
| CGTACGTC | -0.156 |
| GTCCAAAC | -0.0427 |
| AACAGAGG | -0.193 |
| ACTCACAC | -0.0996 |
| GCGAGGAA | 0.0765 |
| GGCTCCAC | -0.197 |
| GATGGTCC | -0.104 |
| ACGCAATA | -0.0184 |
| GACGTCCA | 0.00522 |
| TATGTTGA | 0.109 |
| CCAGGACA | -0.0809 |
| ACACTTAC | 0.0992 |
| AGTCAAGG | -0.139 |
| GCTCGAAC | -0.0952 |
| CGGTTAGA | 0.0398 |

| Sequence | PBM E-score |
| --- | --- |
| CCCCGAGG | 0.11 |
| ACATTGCA | -0.106 |
| ACGTTCTG | -0.235 |
| AACGCCCG | -0.0958 |
| CATGAAGC | -0.0952 |
| CTAGAACC | -0.0226 |
| ATCCGCAT | -0.0548 |
| CGATCTCA | -0.0333 |
| AAACTTGT | 0.102 |
| GGGCCGAA | -0.0697 |
| GTATACCA | -0.0149 |
| AAACACTA | 0.152 |
| AAAAGGGA | -0.0887 |
| CCTAACGA | 0.00922 |
| AACATGCG | -0.0531 |
| CTCCCCGC | 0.1 |
| AGGAAGTA | 0.0793 |
| AAAAAGAT | 0.227 |
| AGGATGCG | -0.116 |
| GTTCCGTA | 0.181 |
| ACTAGAAG | 0.0116 |
| CGGCTAAA | 0.193 |
| GACGCGTC | -0.325 |
| GGGGGTCA | -0.262 |
| AGAATTCG | 0.191 |

| Sequence | PBM E-score |
| --- | --- |
| TGTTTGAA | 0.158 |
| ACGTGGTG | -0.133 |
| ATGGCACC | -0.216 |
| CGCGTTGC | -0.017 |
| CTTGACCA | -0.111 |
| AGTTTTAC | 0.113 |
| CGGGTGCC | -0.0574 |
| ACTGTAAC | 0.0291 |
| CAGTTGAA | -0.00817 |
| ACGCATCA | -0.0138 |
| CGGTCAAG | -0.09 |
| AAGTAGCG | -0.0369 |
| CAAGTTCC | -0.0474 |
| AGATAGAG | 0.098 |
| GAACCAGA | -0.185 |
| GGCCCCGA | -0.074 |
| GGCGGAGA | 0.23 |
| GCATCGGC | -0.241 |
| GTAGGTTA | 0.0304 |
| GTCTAAGA | 0.0877 |
| GCGTACCC | -0.149 |
| ACCTTTAT | -0.051 |
| AGGAGACA | -0.0333 |
| CTGGGTTC | -0.0566 |
| GTAAGAGA | -0.0287 |

| Sequence | PBM E-score |
| --- | --- |
| CAATTCGC | 0.0979 |
| CACTGCGA | -0.139 |
| ACGTGCTA | -0.0868 |
| CTTCTCAA | 0.0485 |
| CTCTATTC | -0.0453 |
| GTTTTACA | -0.0491 |
| GTAATGAC | -0.0353 |
| ATCCACGC | -0.15 |
| GGTCCCTA | -0.185 |
| CGATATAC | 0.0393 |
| CTGTCGTA | 0.0251 |
| GCCCTCAA | -0.171 |
| ACCGGAGA | 0.43 |
| CGTAGAGA | -0.0869 |
| CTCGCCGC | -0.036 |
| AACCCGAG | 0.0811 |
| ATCCAGGC | -0.187 |
| CTCTAGCC | -0.0604 |
| GGAAGCCC | -0.0417 |
| CCGAAGAC | 0.0905 |
| CGCGTTGA | -0.0478 |
| AACTCTCA | -0.14 |
